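Method: 48-hour compound exposure of cells in 96-well plates, five concentrations, linear interpolation of endpoints. At the GI50, growth is halved. TGI: total growth inhibition.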
System: NCI-H322M lung
Assay: growth of human tumour cells (NCI), 48 h

**Q.** What does the source list for `O=C1Nc2cc(-c3ccc(NS(=O)(=O)c4ccc(-c5ccccc5)cc4)cc3)ccc2/C1=C/c1ccc[nH]1`?
**A.** GI50: 2.14 µM; TGI: 15.4 µM

Source: PubChem BioAssay (NCI)
